The values that follow come from the supplement of paper PMC6531468.

The list shows a part of the results. Values come from read counts of a selection and are noisy. Scores sum up all selected molecules that hold the word; the word was not tested alone.

The experiment addresses IMP3 full-length (UniProt O00425). Kind of experiment: 6-mer SELEX enrichment z-score vs GST control; IMP3 is the RNA-binding protein IGF2BP3; higher = more enriched by binding. The conditions noted are these: construct: FL IMP3 (1-579); SELEX round: R4. How it is done: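 SELEX-seq with GST-tagged full-length IMP3 and an N40 RNA pool, round 4. Each 6-mer is scored as an enrichment z-score of sequence tags containing it, normalised to the matching GST SELEX round. RNA written as DNA (T = U).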
Chain of UniProt O00425 (O00425 whole entry): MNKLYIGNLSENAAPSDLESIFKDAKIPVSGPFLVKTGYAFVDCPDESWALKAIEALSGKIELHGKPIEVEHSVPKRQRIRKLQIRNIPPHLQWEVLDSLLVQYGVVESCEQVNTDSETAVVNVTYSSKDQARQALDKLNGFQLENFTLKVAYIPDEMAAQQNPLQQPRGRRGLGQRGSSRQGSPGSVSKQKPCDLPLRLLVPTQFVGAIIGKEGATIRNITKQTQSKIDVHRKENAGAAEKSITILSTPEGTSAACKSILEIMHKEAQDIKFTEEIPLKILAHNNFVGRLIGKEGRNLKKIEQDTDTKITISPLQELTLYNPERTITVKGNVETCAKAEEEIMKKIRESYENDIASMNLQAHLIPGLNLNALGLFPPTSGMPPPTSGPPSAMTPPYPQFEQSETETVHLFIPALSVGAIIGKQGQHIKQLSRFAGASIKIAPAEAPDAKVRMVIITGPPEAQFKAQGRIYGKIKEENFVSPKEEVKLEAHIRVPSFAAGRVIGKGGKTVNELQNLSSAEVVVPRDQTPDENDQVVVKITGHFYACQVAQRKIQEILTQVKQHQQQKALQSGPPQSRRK
Turning to CCAAGG, the “6-mer SELEX enrichment z-score” value is -0.568.

Regarding GCTGGC, the “6-mer SELEX enrichment z-score” value was found to be 0.734.

On to CCAAAT, for which the “6-mer SELEX enrichment z-score” value is -1.47.

Regarding ATAGTA, the “6-mer SELEX enrichment z-score” value was 0.114.

Consider GTGTCA, for which the “6-mer SELEX enrichment z-score” value amounted to 0.132.

In the case of TTACTC, the “6-mer SELEX enrichment z-score” value was -0.326.

As for TCGCGA, the “6-mer SELEX enrichment z-score” value was -0.216.

Take ACGAGA: the “6-mer SELEX enrichment z-score” value was -1.08.

Regarding CGCAGA, the “6-mer SELEX enrichment z-score” value was determined as 0.159.

Consider CCACTT, for which the “6-mer SELEX enrichment z-score” value is -0.076.

Consider TGCAAC, for which the “6-mer SELEX enrichment z-score” value was 0.475.

With GCCCAG, the “6-mer SELEX enrichment z-score” value was -0.604.

Consider ACCTTG, for which the “6-mer SELEX enrichment z-score” value was -1.11.

With GTGACC, the “6-mer SELEX enrichment z-score” value was -0.701.

Consider TCTCAG, for which the “6-mer SELEX enrichment z-score” value is 0.313.

TGAGCA: the “6-mer SELEX enrichment z-score” value was -0.275.

Consider TCCCAC, for which the “6-mer SELEX enrichment z-score” value was -0.746.

In the case of TTCATG, the “6-mer SELEX enrichment z-score” value stood at 1.06.

Consider AGGGTC, for which the “6-mer SELEX enrichment z-score” value is 0.466.

As for GGCCCC, the “6-mer SELEX enrichment z-score” value amounted to 1.03.

As to GTAAGC, the “6-mer SELEX enrichment z-score” value was -0.217.

For the sequence GTCATC, the “6-mer SELEX enrichment z-score” value stood at 0.798.

Turning to CGAAAC, the “6-mer SELEX enrichment z-score” value was -1.73.

Turning to CTAGCC, the “6-mer SELEX enrichment z-score” value is -0.591.

Consider AGAGTC, for which the “6-mer SELEX enrichment z-score” value was found to be 0.405.

As to TCTAAC, the “6-mer SELEX enrichment z-score” value was -0.398.

In the case of TTAAAT, the “6-mer SELEX enrichment z-score” value is -0.21.

Take ATGGGT: the “6-mer SELEX enrichment z-score” value was 0.183.

On to GACCTC, for which the “6-mer SELEX enrichment z-score” value was -0.796.

As for GACGCA, the “6-mer SELEX enrichment z-score” value is 0.235.

As to GCAGGG, the “6-mer SELEX enrichment z-score” value is 0.972.

For the sequence CGAGTC, the “6-mer SELEX enrichment z-score” value came to 0.037.

TTGTAG: the “6-mer SELEX enrichment z-score” value was -0.176.

Consider CGAAAA, for which the “6-mer SELEX enrichment z-score” value is -2.52.

For the sequence GGCCAG, the “6-mer SELEX enrichment z-score” value amounted to 1.11.

Take TCACAC: the “6-mer SELEX enrichment z-score” value stood at 2.16.

As for CATCCT, the “6-mer SELEX enrichment z-score” value was 0.443.

As to GCCTGT, the “6-mer SELEX enrichment z-score” value was -0.183.

Take CCCCGC: the “6-mer SELEX enrichment z-score” value is -0.198.

For GCGCTT, the “6-mer SELEX enrichment z-score” value is 0.163.
